# From PubChem BioAssay AID492947 (National Center for Advancing Translational Sciences (NCATS), 2010)
# About 80 (0.02%) of roughly 330,000 compounds were called active. The shares of active, inactive and inconclusive entries below differ from those in the screen. Calls follow the shape of the dose curve; as a rule, active = well fitted activation curve with a large enough effect; inconclusive = small, poorly fitted or top-dose-only effect; inactive = flat fitted curve, though single readings scatter. Potencies of inconclusive entries are left out as doubtful fits.
# Biological target: Beta-2 adrenergic receptor (Homo sapiens) (UniProt P07550)
# UniProt P07550, sequence (P07550 whole entry, looked up): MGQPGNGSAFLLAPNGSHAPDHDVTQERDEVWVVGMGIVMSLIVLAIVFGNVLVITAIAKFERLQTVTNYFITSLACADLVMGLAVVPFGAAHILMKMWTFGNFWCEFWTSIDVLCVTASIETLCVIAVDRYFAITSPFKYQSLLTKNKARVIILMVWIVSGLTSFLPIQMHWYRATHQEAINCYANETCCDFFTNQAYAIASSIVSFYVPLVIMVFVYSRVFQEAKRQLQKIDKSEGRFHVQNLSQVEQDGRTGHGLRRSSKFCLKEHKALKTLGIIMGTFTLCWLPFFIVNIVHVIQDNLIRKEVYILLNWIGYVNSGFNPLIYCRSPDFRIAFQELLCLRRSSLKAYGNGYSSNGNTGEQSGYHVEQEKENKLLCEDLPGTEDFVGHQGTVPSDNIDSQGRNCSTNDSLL
# Assay: qHTS assay of beta-arrestin-biased ligands of beta2-adrenergic receptor; also: nearly all actives have a fitted effect of over 65% in size;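 as to activation: 0% = DMSO controls and full agonism = EC100 isoproterenol or metaproterenol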
# Details: beta-arrestin recruitment to beta2AR, cell-based reporter; series mostly up to 46.1 µM; activation: at the top concentration
# How it was run: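 Agonist activity is measured as luciferase luminescence downstream of beta-arrestin recruitment to recombinant beta2-AR in Tango cells. Exposure lasts 18 hr at 37 degrees C, and curves are categorized by r2, response size and activity.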
# Potency is read from the fitted curve at half-maximal effect; tags tell the direction and shape of the fitted curve.
SMILES,Potency,activation
NC(=S)N/N=C/c1ccccc1OC(=O)c1cc2ccccc2oc1=O,active: 12.6 µM,
Cc1ccc(N/C(C(Cl)=C(Cl)Cl)=C(/Cl)[N+](=O)[O-])c(C)c1,"inconclusive [rising, single point]",
Cn1nccc1C(=O)NC1CCCc2c1cnn2-c1ccc(C(C)(C)C)cc1 (centres undefined),,inactive: -0.32%
CCCn1c(C2CCCN2c2nc(C)cs2)nc2cc(Cl)c(Cl)cc21 (centres undefined),"inconclusive [rising, single point]",
Cc1c(C(=O)OC2CCC(C)CC2)[nH]c2c1C(=O)CCC2 (centres undefined),"inconclusive [rising, single point]",
CC(=O)NCc1cc(Cl)c2cccnc2c1O,"inconclusive [rising, single point]",
CCC(=O)NCC(=O)OCC(=O)c1ccccc1,,inactive: -0.525%
CCOC(=O)C1CCN(C(=O)Nc2c(-c3ccccc3)noc2C)CC1,"inconclusive [rising, single point]",
Cc1ccc(CNC(=O)CCc2ccc(S(=O)(=O)NCC(C)C)cc2)cc1,,inactive: 0.0351%
O=C(Nc1cccnc1)c1cccc(S(=O)(=O)Nc2cccc(Cl)c2)c1,,inactive: -0.306%
COc1ccc(C/C(C)=N/NC(=S)Nc2ccccc2F)cc1,"inconclusive [rising, single point]",
Oc1c(C(c2ccccn2)N2CCC(Cc3ccccc3)CC2)cc(Cl)c2cccnc12 (centres undefined),"inconclusive [activator, full curve]",
COc1cc(OC)nc(-n2ncc(Br)c(Br)c2=O)n1,"inconclusive [rising, single point]",
O=C(OCCCc1cc2ccccc2c(=O)o1)N1CCOCC1,,inactive: -1%
Cc1cc(C(=O)COC(=O)c2ccc[nH]c2=O)c(C)n1-c1ccccc1,,inactive: -0.99%
CC(=C/c1ccccc1)/C=N/n1c(C)n[nH]c1=S,"inconclusive [rising, single point]",
Cc1ccccc1N(CC(=O)NCC1CCCO1)C(=O)CCC(=O)Nc1nccs1 (centres undefined),,inactive: 14.4%
Cc1ccc(S(=O)(=O)/N=C2\C=C(Nc3cccc(C(=O)O)c3)C(=O)c3ccccc32)cc1,,inactive: -0.251%
CNC(=O)CSc1nnc(C2CC2)n1-c1ccccc1,,inactive: -0.331%
COc1ccc(Nc2sc(C(=O)Nc3cccc(Cl)c3)c(N)c2C(=O)Nc2ccccc2OC)cc1,"inconclusive [rising, single point]",
CCOc1ccc(NC(=O)CN(C)C(=O)CSCc2cccc(C)c2)cc1OCC,,inactive: 0.0468%
C/C(CCC12CC3CC(CC(C3)C1)C2)=N\NC(N)=S,"inconclusive [rising, single point]",
COc1ccc(NC(=O)CSc2nc3ccsc3c(=O)n2CCCCCC(=O)O)cc1,,inactive: 0.176%
COc1ccc2c(c1)c(=O)c(C(=O)c1ccccc1)cn2Cc1ccc(C)cc1,"inconclusive [rising, single point]",
C=CCC1CCC/C(=N\NS(=O)(=O)c2ccc(C)cc2)C1 (centres undefined),,inactive: 0.499%

SMILES,Potency,activation
COc1ccc(CCNC(=O)COC(=O)c2ccc(N3CCCC3=O)cc2)cc1OC,,inactive: 0.0946%
CCCn1c(C(C)Nc2nc(-c3cc(Cl)c(N)c(Cl)c3)cs2)nc2cc(Cl)c(N3CCCCC3)cc21 (centres undefined),"inconclusive [activator, partial curve]",
Cc1cccc(NC(=O)CSc2cccc3cccnc23)c1,"inconclusive [rising, single point]",
O=C(O)c1ccnc2c(O)cccc12,,inactive: 0.0092%
CC(C)CCN1NC2(CCC(C)CC2)NC1=S (centres undefined),"inconclusive [rising, single point]",
O=C(Nc1cccc(C(F)(F)F)c1)Oc1ccc(Cl)c2cccnc12,"inconclusive [rising, single point]",
COc1cccc(/C=N/NC(=S)Nc2cccc(S(=O)(=O)N(C)C)c2)c1,active: 17.8 µM,
O=C(Nc1ccccc1)Nc1ccc2c(c1)CCC2,"inconclusive [rising, full curve, poor fit]",
Cc1ccc(N=C2NC(=O)/C(=C/C=C/c3ccco3)S2)cc1,"inconclusive [rising, single point]",
CCN(CC)c1ccc(/C=N/Nc2nc(C)cc(C)n2)cc1,"inconclusive [rising, single point]",
CCN=c1scc(-c2ccc(F)cc2)n1/N=C/c1ccccn1,"inconclusive [rising, single point]",
Cc1ccc(/C=C/c2onc(C)c2S(=O)(=O)N2CCC(C(=O)NC(C)(C)C)CC2)cc1,,inactive: 0.0621%
Cc1ccc2cccc(SCC(=O)Nc3ccc(F)cc3)c2n1,"inconclusive [rising, single point]",
Cc1cc(C)nc(-n2nc(C)cc2NC(=O)CNC2CCCCC2)n1,"inconclusive [rising, single point]",
COCCN(C(=O)CN1CCN(S(=O)(=O)c2ccc(F)cc2)CC1)c1c(N)n(Cc2ccccc2)c(=O)[nH]c1=O,"inconclusive [rising, single point]",
Cc1ccc(SCC(=O)OCC(=O)N(C)CC(=O)Nc2ccc(F)cc2)cc1,"inconclusive [rising, single point]",
CCOc1cc(C)c(-c2onc(C(F)(F)F)c2-c2csc(C)n2)c(O)c1,,inactive: 0.208%
Cc1ccc(OC(C)C(=O)Nc2cc(C)on2)cc1 (centres undefined),,inactive: -0.675%
CC1C/C(=N\NC(=S)NCc2ccccc2)CC(C)(C)C1 (centres undefined),"inconclusive [rising, single point]",
COc1cccc(/C=N/NC(=O)c2cc(-c3cccn3C)n[nH]2)c1O,"inconclusive [rising, single point]",
CC(=O)Oc1ccc2cc(-c3ccccc3)c(=O)oc2c1,"inconclusive [rising, single point]",
O=C1CCCC(O)=C1N=Nc1cccc(C(=O)O)c1,,inactive: 0.0029%
CCOC(=O)/C(N=Nc1c(C)n(C)n(-c2ccccc2)c1=O)=C(\C)O,,inactive: -0.499%
CCC1(C)Cc2ccccc2C(=S)N1 (centres undefined),"inconclusive [rising, single point]",
